This is an account of results in PMC7819943, “Rice protein-binding microarrays: a tool to detect cis-acting elements near promoter regions in rice”.

This is one part of the list.

In this assay the target is T1, OsWOX13 (Oryza sativa, UniProt Q5QMM3 1-267).
T1 sequence: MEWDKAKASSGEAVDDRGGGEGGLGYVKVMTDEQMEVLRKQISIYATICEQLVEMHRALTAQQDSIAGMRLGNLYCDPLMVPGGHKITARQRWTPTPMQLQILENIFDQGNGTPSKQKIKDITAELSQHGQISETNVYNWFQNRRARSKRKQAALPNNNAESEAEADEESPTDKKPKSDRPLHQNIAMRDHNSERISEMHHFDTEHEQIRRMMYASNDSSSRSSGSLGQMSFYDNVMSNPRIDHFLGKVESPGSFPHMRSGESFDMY
The experiment in a line: protein-binding microarray (RPBM); PBS, 2% BSA, 51.3 ng/ul salmon testes DNA, 50 uM zinc acetate, 200 nM TF, 25 C, 1 h; high values mean tight binding. The note with it: protein: recombinant; tags: N-terminal polyhistidine and DsRed monomer fusion (pET32a); label: CyDye5-dUTP incorporated in the synthesized complementary strand; 3' TTTTT single-stranded linker to array surface; dsDNA, one strand shown. The method, boiled down: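 Binding signal is defined as the fluorescence intensity of each feature in arbitrary units, read on an Axon 4000B scanner. Transcription factors with N-terminal polyhistidine and DsRed fusions came from E. coli BL21-CodonPlus and were purified on Ni–NTA. They were incubated at 200 nM for 1 h at 25 °C on a custom Agilent array that had been made double-stranded with Cy5-dUTP, with 50 µM zinc acetate present, and the array was washed.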
On to “ATGAGATAATTAGTTTTATTTTATTTTATTTTGGTTGTTACGGAGTCACCTAGTGCAG”, for which the binding signal is 27100 fluorescence intensity (a.u.). The result for “AGTTGATAGGAGTAGCTTGAAGAAGCAGAGACAGCTAGATCGGAGTCACCTAGTGCAG” reads 7600 fluorescence intensity (a.u.). “AAGCCTAATTAATCCGTTATTAGTAAATGTTTACTATAGCCGGAGTCACCTAGTGCAG”: the binding signal was 24300 fluorescence intensity (a.u.). For “GACTTGATTTACAGATTTATTGACAGAGTTTTGCTAAGCTCGGAGTCACCTAGTGCAG”, the binding signal was 56600 fluorescence intensity (a.u.). The result for “TGAGTATATATAATTAGGGATTAAATTACAATATTTTAAGCGGAGTCACCTAGTGCAG” reads 5780 fluorescence intensity (a.u.). Under “ACCTCAAATTGCAGTACGGATTGGGTACTAGTCATCAACACGGAGTCACCTAGTGCAG” stands 5990 fluorescence intensity (a.u.); under “AGAATTGATTAGCTCTTGTTTCTATCATGTTAAACACATTCGGAGTCACCTAGTGCAG”, 33000 fluorescence intensity (a.u.). Under “GTAAATATTAATGAATTGCTTGTTTATGTTTAAATAAATGCGGAGTCACCTAGTGCAG” stands 4960 fluorescence intensity (a.u.). “ATATCTAGACAATCAAGCTGTTGACCGAGTTTTCAGGGTGCGGAGTCACCTAGTGCAG”: the binding signal was 5100 fluorescence intensity (a.u.). Under “TGTGATTGGTGCGTTTACCGGTTGCAAGTTGCCTCGCCGCCGGAGTCACCTAGTGCAG” stands 48900 fluorescence intensity (a.u.); under “TTGTGTCACAGTATAAATTAAGTTCCGTACGTGCATACTTCGGAGTCACCTAGTGCAG”, 3160 fluorescence intensity (a.u.). Under “TAGATTAATTATATTTATCTCTCATATAATGTGTGCTATACGGAGTCACCTAGTGCAG” stands 24400 fluorescence intensity (a.u.).

Turning to “TTGAAGTTTATTAATTGTACATCTTTAAACAAATATCTCACGGAGTCACCTAGTGCAG”, the binding signal was 3450 fluorescence intensity (a.u.). For the sequence “CCTAAAAGATTTGATGATGTTGCAAATAAAATTATAAGAACGGAGTCACCTAGTGCAG”, the binding signal is 4010 fluorescence intensity (a.u.).

Consider “TGAAATAATTTGAGGAAGTAAAATTTTATATATATACTCCCGGAGTCACCTAGTGCAG”, for which the binding signal was 7440 fluorescence intensity (a.u.).

In the case of “TTTATTGTGACTTGATTTATCATCAAATGTTCTTTAAGAACGGAGTCACCTAGTGCAG”, the binding signal is 8720 fluorescence intensity (a.u.). Under “TTGAAATTTTGTATATCAAGCCACTAGTCTAGTAGGCTATCGGAGTCACCTAGTGCAG” stands 3390 fluorescence intensity (a.u.); under “ATCAAATTAATTGATGGTGTTTAATTAACAGGGAAGGCTACGGAGTCACCTAGTGCAG”, 46700 fluorescence intensity (a.u.). The result for “CGAAATGCAAATTAATTAGTTGCAGAGGATAAATTTGCATCGGAGTCACCTAGTGCAG” reads 41500 fluorescence intensity (a.u.); that for “GAGTTGATTTGCGTTGTCTCTCCGTCTCTTTCTTATTAATCGGAGTCACCTAGTGCAG”, 20800 fluorescence intensity (a.u.). Under “AGATTCAGGAATTGACAACTTATCATTGGACAATTTCAGCCGGAGTCACCTAGTGCAG” stands 4130 fluorescence intensity (a.u.); under “TTGATTAATTACAAGGCAGCTATAACGGTGTAACCTACCGCGGAGTCACCTAGTGCAG”, 51700 fluorescence intensity (a.u.); under “ATAATTGAATACTACATAAGCACAACAGGAGCCAAAATAACGGAGTCACCTAGTGCAG”, 10100 fluorescence intensity (a.u.). As to “TTAAGATTAAGATTAAGATAGATAATAATACGACATGTTCCGGAGTCACCTAGTGCAG”, the binding signal was 9470 fluorescence intensity (a.u.).

On to “CTTTGTACTGACAGGATATATTTGGCAATCAGTACACTCACGGAGTCACCTAGTGCAG”, for which the binding signal is 3910 fluorescence intensity (a.u.). The result for “CAGCCAAAATTTAAATTTTCAACCATAAATTTGGAGTTGACGGAGTCACCTAGTGCAG” reads 8820 fluorescence intensity (a.u.); that for “ATTTAATGTACAATCATGCTTTTCCGTACTAAATTTTGTTCGGAGTCACCTAGTGCAG”, 14800 fluorescence intensity (a.u.).

Regarding “GGTAAATAGATTCAAATTTCTAATTTGTTACCGGTGCATGCGGAGTCACCTAGTGCAG”, the binding signal is 27400 fluorescence intensity (a.u.).

“GGTCAATTTCTTTCTAGCAATTCATGATAAGTACTCATTCCGGAGTCACCTAGTGCAG”: the binding signal was 3150 fluorescence intensity (a.u.). Under “CGAGTAAATTAACGCACGCTACAAAAGTTCAATAATGGCCCGGAGTCACCTAGTGCAG” stands 7200 fluorescence intensity (a.u.); under “TGCACGTAATCTTCCTAATTAGCTAGCCCATTGGTATTTGCGGAGTCACCTAGTGCAG”, 19800 fluorescence intensity (a.u.); under “GTGAGATTAGACATTGCCACGTGGCTGGCGGTCTCGCAGCCGGAGTCACCTAGTGCAG”, 4700 fluorescence intensity (a.u.). The result for “AATTGGTCCGGTTTTAATAATTGACGGAGCATCTATACCCCGGAGTCACCTAGTGCAG” reads 4430 fluorescence intensity (a.u.); that for “AGAACAATCATCAACTTTTAACGGCACATTTACTAACAATCGGAGTCACCTAGTGCAG”, 6910 fluorescence intensity (a.u.). “TAATTTGTTCTCAATCATACACACTCGCAAATTAATTCTACGGAGTCACCTAGTGCAG”: the binding signal was 7820 fluorescence intensity (a.u.). Under “TTAATATTTATAATTAGTGTCTAAACATCTGATGTGATAGCGGAGTCACCTAGTGCAG” stands 18100 fluorescence intensity (a.u.); under “TCCATGAGACATGATCATCAATTAATACATGTGCTGATCACGGAGTCACCTAGTGCAG”, 12500 fluorescence intensity (a.u.); under “CAATACTAAATTAACATGACTAACTTTCTCCCTTATGCAGCGGAGTCACCTAGTGCAG”, 13500 fluorescence intensity (a.u.). Under “ACGCAAAACTGTGAAAATCATTAACGTGTATTTAATTGACCGGAGTCACCTAGTGCAG” stands 5900 fluorescence intensity (a.u.); under “GCATGACATTTTCCAGTTTATTTTCTTCTTTCTTTCTCTCCGGAGTCACCTAGTGCAG”, 5390 fluorescence intensity (a.u.); under “AAAGCAATCAACCCATACCAACCGAGTTAGGCACGGTTCTCGGAGTCACCTAGTGCAG”, 3390 fluorescence intensity (a.u.).

For the sequence “CTTTAAAATTAATTAAATTTGAAAATTAGTAACGAGGGGACGGAGTCACCTAGTGCAG”, the binding signal was 26700 fluorescence intensity (a.u.).
